Measurements: paper PMC4336329 (PLoS ONE, 2015)
The campaign covered roughly 310,000 compounds. About 2,200 (0.71%) showed an effect of 50% or more. Effects have a minus sign here. The list shows a part of the results.

Molecular target: human ether-à-go-go-related gene (hERG) potassium channel (human, UniProt Q12809)
Test: primary screen, population patch clamp on CHO cells stably expressing hERG

human ether-à-go-go-related gene (hERG) potassium channel, sequence (Q12809 whole entry, looked up): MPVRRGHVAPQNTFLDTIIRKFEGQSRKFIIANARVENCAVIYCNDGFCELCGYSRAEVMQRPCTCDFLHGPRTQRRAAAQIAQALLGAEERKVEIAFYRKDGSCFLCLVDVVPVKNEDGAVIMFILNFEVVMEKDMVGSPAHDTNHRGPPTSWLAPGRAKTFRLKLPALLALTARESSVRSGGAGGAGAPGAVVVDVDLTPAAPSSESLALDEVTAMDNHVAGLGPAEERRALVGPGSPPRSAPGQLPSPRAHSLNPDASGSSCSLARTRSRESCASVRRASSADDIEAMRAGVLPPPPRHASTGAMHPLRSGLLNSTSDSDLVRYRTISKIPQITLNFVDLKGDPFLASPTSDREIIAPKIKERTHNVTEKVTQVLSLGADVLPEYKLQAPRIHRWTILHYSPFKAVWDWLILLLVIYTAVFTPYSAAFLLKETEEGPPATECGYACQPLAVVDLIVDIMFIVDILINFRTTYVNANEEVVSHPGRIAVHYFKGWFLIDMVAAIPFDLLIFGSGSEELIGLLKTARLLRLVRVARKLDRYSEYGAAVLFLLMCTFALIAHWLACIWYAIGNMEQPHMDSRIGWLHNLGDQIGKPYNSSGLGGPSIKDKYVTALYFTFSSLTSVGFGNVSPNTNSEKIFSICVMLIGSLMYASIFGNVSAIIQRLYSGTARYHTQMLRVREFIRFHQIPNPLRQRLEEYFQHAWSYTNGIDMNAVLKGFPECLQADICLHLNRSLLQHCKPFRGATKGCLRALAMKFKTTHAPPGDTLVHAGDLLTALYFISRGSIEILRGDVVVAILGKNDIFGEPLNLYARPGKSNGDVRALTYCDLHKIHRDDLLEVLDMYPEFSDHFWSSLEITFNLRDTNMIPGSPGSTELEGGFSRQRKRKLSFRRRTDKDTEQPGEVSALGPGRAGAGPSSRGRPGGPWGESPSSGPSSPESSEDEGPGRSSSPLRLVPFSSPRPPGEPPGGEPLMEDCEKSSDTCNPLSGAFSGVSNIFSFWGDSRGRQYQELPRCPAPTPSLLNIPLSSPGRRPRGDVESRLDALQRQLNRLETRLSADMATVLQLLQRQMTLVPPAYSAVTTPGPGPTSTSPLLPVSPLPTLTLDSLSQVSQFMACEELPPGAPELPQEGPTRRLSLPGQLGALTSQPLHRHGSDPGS

Row | SMILES | hERG current change (%, negative = inhibition) at 1uM
1 | Oc1ccc(Cl)cc1CNn1cnnc1 | 11.9%
2 | COc1cc(C(=S)N2CCOCC2)cc(OC)c1OC(=O)c1cccc(C)c1 | 7.14%
3 | CC(C)CCn1c(=O)c2ccccc2n2c(CCl)nnc12 | -4.95%
4 | COc1ccc(OC)c(C2NC(=O)c3sc(=S)n(-c4ccccc4)c3N2)c1 (centres unmarked) | 11.7%
5 | CC(C)(C)C(=O)NC1(C(F)(F)F)N=C2SCCN2C1=O (centres unmarked) | -3.28%
6 | COc1ccc(C(=O)Nc2nnc(SCC(=O)NCc3ccco3)s2)cc1OC | 8.41%
7 | CCOC(=O)c1cc(-c2ccccc2)sc1NC(=O)C(C)OC(=O)c1cccc(S(=O)(=O)N(C)C)c1 (centres unmarked) | 15.6%
8 | CNC(=O)N(C)c1ccc(C(O)(C(=O)OC)C(F)(F)F)cc1 (centres unmarked) | 12.5%
9 | O=[N+]([O-])c1ccc(C2=NN(CCO)C(=Nc3ccc(OC(F)(F)F)cc3)SC2)cc1 | 18.2%
10 | CCN(CC)S(=O)(=O)c1cccc(C(=O)Nc2nc3cc4c(cc3s2)OCCO4)c1 | 10.8%
11 | NC(=O)COC(=O)c1cc(=O)[nH]c2ccc(S(=O)(=O)Nc3ccc(F)cc3)cc12 | 8.84%
12 | Cl.O=C(Oc1cccnc1)c1ccc(Cl)cc1 | -19.7%
13 | COc1cccc(-c2ncc3ccccc3c2COC(=O)CCCC(=O)O)c1 | 2.76%
14 | NC(=S)Nc1ccccc1Br | -9.14%
15 | COc1ccc(N2CCN(c3ccc(N4C(=O)CC(C)C4=O)cc3[N+](=O)[O-])CC2)cc1 (centres unmarked) | 15%
16 | Cc1onc(-c2ccccc2Cl)c1C(O)c1ccc(F)cc1 (centres unmarked) | 2.22%
17 | COc1ccc(S(=O)(=O)N2CCOCC2)c(C)c1C | 11.5%
18 | COc1ccccc1C(=O)Nc1ccc(CN2CCCCC2)cc1 | 9.16%
19 | CC(OC(=O)Cn1[nH]c(=O)c2ccccc2c1=O)C(=O)Nc1ccc(Cl)cn1 (centres unmarked) | 3.15%

Row | SMILES | hERG current change (%, negative = inhibition) at 1uM
20 | CCCCn1ccnc1C(=O)c1ccc(S(=O)(=O)N(CCOC)CCOC)cc1 | 10.7%
21 | CCOc1cc(NC(=O)C2CCCCC2)c(OCC)cc1NC(=O)c1ccco1 | 9.59%
22 | CC1CCCN(C(c2cccs2)c2nnnn2Cc2ccccc2)C1.Cl (centres unmarked) | -0.954%
23 | COc1ccccc1C1CC(=O)Nc2cc(C)c(C)cc21 (centres unmarked) | 12.4%
24 | CCOC(=O)c1coc(CNC(=O)c2c(C)oc3c2CCCC3)c1 | 0.0394%
25 | Cc1ccc(CN2CCN(CC(=O)N/N=C/c3c[nH]c4ccccc34)CC2)cc1 | -5.15%
26 | CCOC(=O)C1CCN(C2CCN(C(=O)c3oc4c(F)cccc4c3C)CC2)CC1 | -67%
27 | COc1ccc(CNC(=O)C2CCN(S(=O)(=O)c3ccc(Br)s3)CC2)cc1 | 3.86%
28 | COc1ccc(NC(=O)C(NC(=O)CC2NC(=O)NC2=O)c2ccccc2)cc1 (centres unmarked) | 0.021%
29 | O=C1C(=O)N(Cc2cccc([N+](=O)[O-])c2)c2ccccc21 | 0.382%
30 | NNC(=O)c1ccc(COc2cccc3ccccc23)o1 | 12.6%
31 | COC(=O)c1[nH]c2ccccc2c1NC(=O)CN1CCN(c2cccc(OC)c2)C(C)C1 (centres unmarked) | 5.4%
32 | O=C(CBr)Nc1c2c(nn1-c1ccccc1)CSC2 | 14.2%
33 | CCOc1cc(NC(=S)NCCOC)c(OCC)cc1NC(=O)c1ccco1 | 10.8%
34 | CCCn1c(N)c(C(=O)CSc2nnc(Cc3cccs3)n2C2CC2)c(=O)n(C)c1=O | 6.27%
35 | Cc1ccc(C(CC(=O)N2CCCCC2)c2ccccc2)c(O)c1C (centres unmarked) | -1.66%
36 | Cc1ccccc1C1C2=C(Nc3[nH]n(-c4ccccc4)c(=O)c31)c1ccccc1C2=O (centres unmarked) | 1.91%
37 | CCc1nnc(N/N=C/c2c(F)cccc2Cl)n1N | 7.27%
38 | CCc1ccc(/C=C2\Oc3c(ccc(O)c3CN3CCN(C)CC3)C2=O)cc1 | 3.67%

Row | SMILES | hERG current change (%, negative = inhibition) at 1uM
39 | O=S(=O)(c1cccs1)N1CCN(c2ccccn2)CC1 | 13.6%
40 | O=C(COC(=O)c1cccnc1)c1ccc(Cl)c(Cl)c1 | 12.8%
41 | O=C1NC(=S)NC(=O)C1=Cc1ccc(Br)s1 | 17.6%
42 | COc1ccc(OC)c(NC(=O)C2CCCC2)c1 | 10.1%
43 | CC1CC(C)CN(S(=O)(=O)c2cc3c(cc2Cl)NC(=O)CO3)C1 (centres unmarked) | -1.39%
44 | COc1ccc2nc(NC(=O)c3cccc(OCc4c(C)noc4C)c3)sc2c1 | 1.83%
45 | O=C(CCN1CCN(c2ccccc2)CC1)NNC(=S)Nc1ccccc1 | -19%
46 | COc1ccc(C(C(=O)NC(C)(C)C)N(Cc2cccnc2)C(=O)CCC(=O)Nc2cc(C)on2)cc1 (centres unmarked) | 6.74%
47 | CCC(=O)N/C(N)=N/c1nc2ccccc2o1 | 11.3%
48 | CCCn1cc(CN2CCCC(C(=O)c3ccc4c(c3)OCO4)C2)c(C)n1 (centres unmarked) | -10.2%
49 | CC(=O)N1CCc2ccc(NC(=O)c3c(-c4c(Cl)cccc4Cl)noc3C)cc21 | 13.3%
50 | O=C(CCc1ccccc1)Nc1c(F)cccc1F | 0.491%
51 | Cc1ccc(OCCCC(=O)Nc2ccc(S(=O)(=O)N3CCOCC3)cc2)cc1 | 5.94%
52 | O=S(=O)(Nc1cccc(CCc2ccccn2)c1)c1ccc(Cl)cc1 | 12.6%
53 | CSc1nnc(SCC2=NNC(=O)SC2)s1 | 8.51%
54 | COc1ccccc1CNC(=O)c1cccc(C)c1[N+](=O)[O-] | 2.87%
55 | CCCN1CC=C2C(C#N)=C(N)C(C#N)(C#N)C(c3cccc(OC)c3OC)C2C1 (centres unmarked) | 5.78%
56 | CN1CCN(C(=O)c2ccc(S(=O)(=O)c3ccc(Br)cc3)cc2)CC1 | 1.1%
